Measured values as given in the supplement of paper PMC4967469.
By IC50 is meant the dose at which the fit gives 50% viability; a fit beyond the top or the lowest dose is shown as a bound at that dose. AUC sums up the same curve from the lowest dose to the 256-fold higher top dose; the more sensitive the line, the further below 1. For part of these data: An inferred top dose is not printed in the source and was worked back from the curve model. For part of these data: An entry number marks a drug with two screens in the source, which often give different values.

What was measured:
Experiment in all cases: Viability of human cancer cell lines after 72 h of drug (GDSC screen)
Belinostat = compound: O=C(/C=C/c1cccc(S(=O)(=O)Nc2ccccc2)c1)NO [Belinostat]; details: top dose 20 µM; top dose inferred
Description: (§1)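 Human cancer cell lines in 384-well plates, medium with 10% serum, drug for 72 h over a 256-fold dose range (nine 2-fold or five 4-fold steps up to the top dose). Adherent lines were fixed and stained with the nucleic acid dye Syto60, suspension lines read with resazurin; signal relative to control wells, capped at 0 and 100%. One two-parameter sigmoid per drug and line, fitted in a mixed model over all curves with the slope shared within a line.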

OSI-906 = compound: C[C@]1(O)C[C@@H](c2nc(-c3ccc4ccc(-c5ccccc5)nc4c3)c3c(N)nccn32)C1 [OSI-906]; details: top dose 2.56 µM; top dose inferred
Description: as §1

NVP-TAE684 = compound: COc1cc(N2CCC(N3CCN(C)CC3)CC2)ccc1Nc1ncc(Cl)c(Nc2ccccc2S(=O)(=O)C(C)C)n1 [NVP-TAE684]; details: top dose 2 µM
Description: as §1

FTI-277 = compound: COC(=O)[C@H](CCSC)NC(=O)c1ccc(NC[C@@H](N)CS)cc1-c1ccccc1 [FTI-277]; details: top dose 1.024 µM; top dose inferred
Description: as §1

JNK Inhibitor VIII = compound: CCOc1nc(NC(=O)Cc2cc(OC)ccc2OC)cc(N)c1C#N [JNK Inhibitor VIII]; details: top dose 10 µM; top dose inferred
Description: as §1

AMG-706 = compound: CC1(C)CNc2cc(NC(=O)c3cccnc3NCc3ccncc3)ccc21 [AMG-706]; details: top dose 2 µM; top dose inferred
Description: as §1

Docetaxel = compound: CC(=O)O[C@@]12CO[C@@H]1C[C@H](O)[C@@]1(C)C(=O)[C@H](O)C3=C(C)[C@@H](OC(=O)[C@H](O)[C@@H](NC(=O)OC(C)(C)C)c4ccccc4)C[C@@](O)([C@@H](OC(=O)c4ccccc4)[C@H]21)C3(C)C [Docetaxel]; details: top dose 0.0125 µM
Description: as §1

PHA-665752 = compound: Cc1[nH]c(/C=C2\C(=O)Nc3ccc(S(=O)(=O)Cc4c(Cl)cccc4Cl)cc32)c(C)c1C(=O)N1CCC[C@@H]1CN1CCCC1 [PHA-665752]; details: top dose 2 µM
Description: as §1

Cyclopamine = compound: CC1=C2C[C@H]3[C@@H](CC=C4C[C@@H](O)CC[C@@]43C)[C@@H]2CC[C@]12O[C@@H]1C[C@H](C)CN[C@H]1[C@H]2C [Cyclopamine]; details: top dose 16 µM; top dose inferred
Description: as §1

CGP-60474 = compound: OCCCNc1cc(-c2ccnc(Nc3cccc(Cl)c3)n2)ccn1 [CGP-60474]; details: top dose 0.256 µM; top dose inferred
Description: as §1

SB-715992 = compound: Cc1ccc(C(=O)N(CCCN)[C@@H](c2nc3cc(Cl)ccc3c(=O)n2Cc2ccccc2)C(C)C)cc1 [SB-715992]; details: top dose 0.128 µM; top dose inferred
Description: as §1

JQ1 = compound: Cc1sc2c(c1C)C(c1ccc(Cl)cc1)=N[C@@H](CC(=O)OC(C)(C)C)c1nnc(C)n1-2 [JQ1]
Description: as §1

JNJ-26854165 = compound: c1ccc2c(CCNc3ccc(Nc4ccncc4)cc3)c[nH]c2c1 [JNJ-26854165]; details: top dose 10 µM
Description: as §1

YM155 = compound: COCC[n+]1c2c(n(Cc3cnccn3)c1C)C(=O)c1ccccc1C2=O [YM155]; details: top dose 5.12 µM
Description: as §1

NSC-207895 = compound: CN1CCN(c2ccc([N+](=O)[O-])c3no[n+]([O-])c23)CC1 [NSC-207895]; details: top dose 20 µM; top dose inferred
Description: as §1

[1] = top dose 1 µM, screen: GDSC drug entry 1218, top dose inferred
[2] = top dose 2.56 µM, screen: GDSC drug entry 163

Row | Cell Line | AUC (Belinostat) | IC50 (Belinostat) | AUC (OSI-906) | IC50 (OSI-906) | AUC (NVP-TAE684) | IC50 (NVP-TAE684) | AUC (FTI-277) | IC50 (FTI-277) | AUC (JNK Inhibitor VIII) | IC50 (JNK Inhibitor VIII) | AUC (AMG-706) | IC50 (AMG-706) | AUC (Docetaxel) | IC50 (Docetaxel) | AUC (PHA-665752) | IC50 (PHA-665752) | AUC (Cyclopamine) | IC50 (Cyclopamine) | AUC (CGP-60474) | IC50 (CGP-60474) | AUC (SB-715992) | IC50 (SB-715992) | AUC (JQ1; [1]) | IC50 (JQ1; [1]) | AUC (JQ1; [2]) | IC50 (JQ1; [2]) | AUC (JNJ-26854165) | IC50 (JNJ-26854165) | AUC (YM155) | IC50 (YM155) | AUC (NSC-207895) | IC50 (NSC-207895)
1 | NCI-H345 (small cell lung carcinoma, suspension) | 0.378 | 565 nM | 0.99 | > 2560 nM | 0.973 | > 2000 nM | 0.99 | > 1020 nM | 0.989 | > 10000 nM | 0.988 | > 2000 nM | 0.986 | > 12.5 nM | 0.99 | > 2000 nM | 0.99 | > 16000 nM | 0.848 | 206 nM | 0.988 | > 128 nM | 0.989 | > 1000 nM | 0.99 | > 2560 nM | 0.983 | > 10000 nM | 0.048 | < 20 nM | 0.879 | > 20000 nM
2 | NOS-1 (osteosarcoma, adherent) | 0.312 | 328 nM | 0.661 | 501 nM | 0.463 | 96.6 nM | 0.964 | > 1020 nM | 0.976 | > 10000 nM | 0.914 | > 2000 nM | 0.85 | > 12.5 nM | 0.884 | > 2000 nM | 0.909 | > 16000 nM | 0.514 | 17.6 nM | 0.691 | 31.4 nM | 0.977 | > 1000 nM | 0.5 | 160 nM | 0.803 | 6370 nM | 0.073 | < 20 nM | 0.9 | > 20000 nM
3 | OCI-AML5 (acute myeloid leukaemia, suspension) | 0.152 | 121 nM | 0.58 | 259 nM | 0.614 | 249 nM | 0.988 | > 1020 nM | 0.989 | > 10000 nM | 0.987 | > 2000 nM | 0.884 | 11.5 nM | 0.956 | > 2000 nM | 0.979 | > 16000 nM | 0.782 | 97.1 nM | 0.607 | 15.3 nM | 0.986 | > 1000 nM | 0.68 | 484 nM | 0.972 | > 10000 nM | 0.241 | 62.3 nM | 0.889 | 19400 nM
4 | P30-OHK (lymphoblastic leukaemia, suspension) | 0.112 | 97.7 nM | 0.933 | > 2560 nM | 0.96 | > 2000 nM | 0.98 | > 1020 nM | 0.991 | > 10000 nM | 0.991 | > 2000 nM | 0.937 | > 12.5 nM | 0.99 | > 2000 nM | 0.966 | > 16000 nM | 0.953 | > 256 nM | 0.628 | 16.9 nM | 0.648 | 149 nM | 0.506 | 166 nM | 0.933 | > 10000 nM | 0.016 | < 20 nM | 0.907 | 19500 nM
5 | Raji (Burkitt lymphoma, suspension) | 0.307 | 376 nM | 0.902 | > 2560 nM | 0.99 | > 2000 nM | 0.985 | > 1020 nM | 0.983 | > 10000 nM | 0.988 | > 2000 nM | 0.983 | > 12.5 nM | 0.99 | > 2000 nM | 0.987 | > 16000 nM | 0.663 | 44 nM | 0.912 | > 128 nM | 0.857 | 732 nM | 0.757 | 826 nM | 0.959 | > 10000 nM | 0.024 | < 20 nM | 0.969 | > 20000 nM
6 | SIMA (neuroblastoma, adherent) | 0.567 | 1950 nM | 0.768 | 1090 nM | 0.98 | > 2000 nM | 0.982 | > 1020 nM | 0.985 | > 10000 nM | 0.961 | > 2000 nM | 0.902 | > 12.5 nM | 0.957 | > 2000 nM | 0.965 | > 16000 nM | 0.891 | > 256 nM | 0.9 | > 128 nM | 0.954 | > 1000 nM | 0.734 | 822 nM | 0.924 | > 10000 nM | 0.574 | 523 nM | 0.915 | > 20000 nM
